{"source": "the supplement of paper PMC10126150", "note": "Sequences with one replicate were seen in a single cluster, so their values are uncertain.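 Further: ATP exposure 15 min at 22 °C before imaging.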", "data": [{"test_system": "ATP", "assay": "switch fluorescence ratio, 500 uM ATP over buffer (Cy3 cluster intensity, sum of 5 cycles each) (fold (ratio)); higher = stronger signal-on switching upon ATP binding; sequences stand for … in TCGTCGGCAGCGTCAGATGTGTATAAGAGACAGTTTTTTTTTTTTTTTTTTTTTTTTT…TC", "details": "aptamer strand: ATP DNA aptamer (quencher-CACCTGGGGGAGTATTGCGGAGGAAGG + anchor), 100 nM annealed; ATP concentration: 500 uM; one replicate", "outline": "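Per cluster, summed Cy3 intensity from the target cycles was divided by that from the buffer cycles to give the fluorescence ratio, then averaged per switch-domain sequence. Clusters outside 100-1000 RFU were excluded. The Cy3-labelled switching-strand clusters, on a modified Illumina MiSeq flow-cell, were annealed to 100 nM quencher-labelled ATP aptamer and imaged in selection buffer, then after 15 min with 500 uM ATP at 22 °C, for five cycles with NaOH stripping and re-annealing between them.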", "values": [{"sequence": "TAGATAGTAG", "switch fluorescence ratio": 0.972}, {"sequence": "TAGATCGGC", "switch fluorescence ratio": 1.02}, {"sequence": "TAGATGAATG", "switch fluorescence ratio": 0.972}, {"sequence": "TAGATGCCGC", "switch fluorescence ratio": 0.992}, {"sequence": "TAGATGGTTG", "switch fluorescence ratio": 0.991}, {"sequence": "TAGCACAATG", "switch fluorescence ratio": 0.98}, {"sequence": "TAGCACAGTC", "switch fluorescence ratio": 1.02}, {"sequence": "TAGCAGAATT", "switch fluorescence ratio": 1.03}, {"sequence": "TAGCAGTTTC", "switch fluorescence ratio": 1.08}, {"sequence": "TAGCATAATG", "switch fluorescence ratio": 1.01}, {"sequence": "TAGCATTTCT", "switch fluorescence ratio": 0.981}, {"sequence": "TAGCCAGCTT", "switch fluorescence ratio": 1.01}, {"sequence": "TAGCCGTCGG", "switch fluorescence ratio": 0.971}, {"sequence": "TAGCCTGCCT", "switch fluorescence ratio": 1.11}, {"sequence": "TAGCGAACG", "switch fluorescence ratio": 1.05}, {"sequence": "TAGCGAAGTC", "switch fluorescence ratio": 1.05}, {"sequence": "TAGCGCCCAG", "switch fluorescence ratio": 1}, {"sequence": "TAGCGGGCTG", "switch fluorescence ratio": 0.991}, {"sequence": "TAGCGGTATC", "switch fluorescence ratio": 1.04}, {"sequence": "TAGCGGTTAC", "switch fluorescence ratio": 1.49}, {"sequence": "TAGCGTAAAG", "switch fluorescence ratio": 1.04}, {"sequence": "TAGCGTAAGT", "switch fluorescence ratio": 1.02}, {"sequence": "TAGCGTC", "switch fluorescence ratio": 0.958}, {"sequence": "TAGCGTCACG", "switch fluorescence ratio": 0.943}, {"sequence": "TAGCGTTGG", "switch fluorescence ratio": 1.02}, {"sequence": "TAGCTAATGT", "switch fluorescence ratio": 1.02}, {"sequence": "TAGCTAGAAT", "switch fluorescence ratio": 0.985}, {"sequence": "TAGCTATAAT", "switch fluorescence ratio": 1.02}, {"sequence": "TAGCTGCCCT", "switch fluorescence ratio": 0.976}, {"sequence": "TAGCTGTGTC", "switch fluorescence ratio": 0.999}, {"sequence": "TAGGAAAGAC", "switch fluorescence ratio": 1.04}, {"sequence": "TAGGAAT", "switch fluorescence ratio": 1.06}, {"sequence": "TAGGAGACT", "switch fluorescence ratio": 1.02}, {"sequence": "TAGGAGAGGC", "switch fluorescence ratio": 0.978}, {"sequence": "TAGGAGGCTG", "switch fluorescence ratio": 1.1}, {"sequence": "TAGGAGGTG", "switch fluorescence ratio": 1.09}, {"sequence": "TAGGATATTC", "switch fluorescence ratio": 1.03}, {"sequence": "TAGGATCTCG", "switch fluorescence ratio": 1}, {"sequence": "TAGGCCACAA", "switch fluorescence ratio": 1.04}, {"sequence": "TAGGCCCTGC", "switch fluorescence ratio": 1.01}, {"sequence": "TAGGCCGAGA", "switch fluorescence ratio": 0.936}, {"sequence": "TAGGCCGGGC", "switch fluorescence ratio": 1.03}, {"sequence": "TAGGCGATAG", "switch fluorescence ratio": 1.03}, {"sequence": "TAGGCTAAAG", "switch fluorescence ratio": 1.01}, {"sequence": "TAGGCTAAGT", "switch fluorescence ratio": 1.02}, {"sequence": "TAGGCTAATT", "switch fluorescence ratio": 1.01}, {"sequence": "TAGGGAGATA", "switch fluorescence ratio": 0.943}, {"sequence": "TAGGGATCAT", "switch fluorescence ratio": 0.978}, {"sequence": "TAGGGATGG", "switch fluorescence ratio": 1}, {"sequence": "TAGGGCATTA", "switch fluorescence ratio": 1.11}, {"sequence": "TAGGGCCGAA", "switch fluorescence ratio": 1}, {"sequence": "TAGGGCTGAG", "switch fluorescence ratio": 1.01}, {"sequence": "TAGGGGATGG", "switch fluorescence ratio": 0.998}, {"sequence": "TAGGGGCCAT", "switch fluorescence ratio": 1.03}, {"sequence": "TAGGGGCTGG", "switch fluorescence ratio": 1.09}, {"sequence": "TAGGGTAAAA", "switch fluorescence ratio": 0.972}, {"sequence": "TAGGGTAGGA", "switch fluorescence ratio": 1.01}, {"sequence": "TAGGGTCCTT", "switch fluorescence ratio": 1.02}, {"sequence": "TAGGGTGGC", "switch fluorescence ratio": 0.97}, {"sequence": "TAGGTATTTG", "switch fluorescence ratio": 0.978}, {"sequence": "TAGGTCACGG", "switch fluorescence ratio": 1.01}, {"sequence": "TAGGTCCTCG", "switch fluorescence ratio": 1.02}, {"sequence": "TAGGTCTAGA", "switch fluorescence ratio": 0.984}, {"sequence": "TAGGTCTATC", "switch fluorescence ratio": 0.963}, {"sequence": "TAGGTTCGA", "switch fluorescence ratio": 0.989}, {"sequence": "TAGGTTGAGA", "switch fluorescence ratio": 1.02}, {"sequence": "TAGTAACGTT", "switch fluorescence ratio": 0.992}, {"sequence": "TAGTACAGTG", "switch fluorescence ratio": 1.01}, {"sequence": "TAGTACGGCG", "switch fluorescence ratio": 1.01}, {"sequence": "TAGTACTAAG", "switch fluorescence ratio": 1.04}, {"sequence": "TAGTAGCA", "switch fluorescence ratio": 1.06}, {"sequence": "TAGTAGGGAT", "switch fluorescence ratio": 1.01}, {"sequence": "TAGTAGGGG", "switch fluorescence ratio": 0.977}, {"sequence": "TAGTATAGTA", "switch fluorescence ratio": 1.01}, {"sequence": "TAGTATTTGA", "switch fluorescence ratio": 1}, {"sequence": "TAGTCAAAAC", "switch fluorescence ratio": 1.16}, {"sequence": "TAGTCATATG", "switch fluorescence ratio": 0.988}, {"sequence": "TAGTCATGTT", "switch fluorescence ratio": 0.98}, {"sequence": "TAGTCCAACT", "switch fluorescence ratio": 1.03}, {"sequence": "TAGTCCACGC", "switch fluorescence ratio": 1.04}, {"sequence": "TAGTCCTTTG", "switch fluorescence ratio": 0.992}, {"sequence": "TAGTCGCACA", "switch fluorescence ratio": 0.992}, {"sequence": "TAGTCGGGGT", "switch fluorescence ratio": 0.939}, {"sequence": "TAGTCGGTCT", "switch fluorescence ratio": 0.989}, {"sequence": "TAGTCTCAAT", "switch fluorescence ratio": 0.939}, {"sequence": "TAGTGACTTT", "switch fluorescence ratio": 0.986}, {"sequence": "TAGTGAGTTA", "switch fluorescence ratio": 0.992}, {"sequence": "TAGTGATATC", "switch fluorescence ratio": 1}, {"sequence": "TAGTGATGTG", "switch fluorescence ratio": 0.968}, {"sequence": "TAGTGCATAG", "switch fluorescence ratio": 0.976}, {"sequence": "TAGTGCCGTA", "switch fluorescence ratio": 1.1}, {"sequence": "TAGTGCTGAA", "switch fluorescence ratio": 0.986}, {"sequence": "TAGTGGTGC", "switch fluorescence ratio": 1.28}, {"sequence": "TAGTGTATG", "switch fluorescence ratio": 1.01}, {"sequence": "TAGTGTGAGC", "switch fluorescence ratio": 1.01}, {"sequence": "TAGTTATTAA", "switch fluorescence ratio": 1.02}, {"sequence": "TAGTTCTGCC", "switch fluorescence ratio": 1.02}, {"sequence": "TAGTTGAGAT", "switch fluorescence ratio": 1.02}, {"sequence": "TAGTTGGAGT", "switch fluorescence ratio": 1.03}, {"sequence": "TAGTTGGTTC", "switch fluorescence ratio": 0.932}, {"sequence": "TAGTTGTATG", "switch fluorescence ratio": 1}, {"sequence": "TATAAACGG", "switch fluorescence ratio": 0.998}, {"sequence": "TATAAACTT", "switch fluorescence ratio": 1.03}, {"sequence": "TATAAATCAG", "switch fluorescence ratio": 1.07}, {"sequence": "TATAACTGCA", "switch fluorescence ratio": 1.02}, {"sequence": "TATAAGGGTA", "switch fluorescence ratio": 1.01}, {"sequence": "TATAAGGTAG", "switch fluorescence ratio": 0.986}, {"sequence": "TATAAGTATT", "switch fluorescence ratio": 0.976}, {"sequence": "TATAAGTGCT", "switch fluorescence ratio": 0.985}, {"sequence": "TATAAGTTG", "switch fluorescence ratio": 1.01}, {"sequence": "TATAATAAAA", "switch fluorescence ratio": 1.02}, {"sequence": "TATAATCGC", "switch fluorescence ratio": 1.01}, {"sequence": "TATAATGATG", "switch fluorescence ratio": 0.992}, {"sequence": "TATAATGTCC", "switch fluorescence ratio": 0.956}, {"sequence": "TATACGCGTC", "switch fluorescence ratio": 0.978}, {"sequence": "TATACTATTC", "switch fluorescence ratio": 0.954}, {"sequence": "TATACTCAT", "switch fluorescence ratio": 1.09}, {"sequence": "TATAGAAAAG", "switch fluorescence ratio": 1.02}, {"sequence": "TATAGAGGGT", "switch fluorescence ratio": 0.983}, {"sequence": "TATAGATCCC", "switch fluorescence ratio": 0.965}, {"sequence": "TATAGCAGAA", "switch fluorescence ratio": 0.997}, {"sequence": "TATAGCCCTT", "switch fluorescence ratio": 1.08}, {"sequence": "TATAGCGTAT", "switch fluorescence ratio": 1.04}, {"sequence": "TATAGCGTTG", "switch fluorescence ratio": 0.994}, {"sequence": "TATAGGGGCG", "switch fluorescence ratio": 0.986}, {"sequence": "TATAGGGTCG", "switch fluorescence ratio": 0.91}, {"sequence": "TATAGGGTGG", "switch fluorescence ratio": 0.999}, {"sequence": "TATAGGTACG", "switch fluorescence ratio": 1.08}, {"sequence": "TATAGTAACG", "switch fluorescence ratio": 0.985}, {"sequence": "TATAGTCTGT", "switch fluorescence ratio": 0.973}, {"sequence": "TATAGTTGTC", "switch fluorescence ratio": 1.07}, {"sequence": "TATATACAAG", "switch fluorescence ratio": 1.01}, {"sequence": "TATATCTATC", "switch fluorescence ratio": 0.99}, {"sequence": "TATATGAGTG", "switch fluorescence ratio": 1.01}, {"sequence": "TATATGATTT", "switch fluorescence ratio": 1.03}, {"sequence": "TATATGGCAG", "switch fluorescence ratio": 0.999}, {"sequence": "TATATGTATG", "switch fluorescence ratio": 1.01}, {"sequence": "TATATTAAAT", "switch fluorescence ratio": 1.02}, {"sequence": "TATATTGATG", "switch fluorescence ratio": 0.976}, {"sequence": "TATATTTAGA", "switch fluorescence ratio": 0.984}, {"sequence": "TATCACAGGG", "switch fluorescence ratio": 1.06}, {"sequence": "TATCAGAGTT", "switch fluorescence ratio": 0.954}, {"sequence": "TATCAGGGAA", "switch fluorescence ratio": 0.978}, {"sequence": "TATCAGTACA", "switch fluorescence ratio": 1.02}, {"sequence": "TATCAGTGCC", "switch fluorescence ratio": 1.03}, {"sequence": "TATCATGACG", "switch fluorescence ratio": 0.976}, {"sequence": "TATCATGATG", "switch fluorescence ratio": 0.987}, {"sequence": "TATCATT", "switch fluorescence ratio": 0.938}, {"sequence": "TATCATTAAC", "switch fluorescence ratio": 0.964}, {"sequence": "TATCATTGGA", "switch fluorescence ratio": 1.01}, {"sequence": "TATCCCAGT", "switch fluorescence ratio": 0.997}, {"sequence": "TATCCCAGTG", "switch fluorescence ratio": 2.58}, {"sequence": "TATCCCCTGG", "switch fluorescence ratio": 1.61}, {"sequence": "TATCCCGTAC", "switch fluorescence ratio": 1.43}]}]}
